In the supplement of paper PMC12340641:
Whole data set: some 1,000 compounds, median “relative growth recovery (pomalidomide 10 uM = 100%, DMSO = 0%)” near -1.6, cut for the highest 2% near 21. The list shows a part of the results.

Each compound was assayed on HEK293FT dCK*-IKZF1 (assay: relative growth recovery (pomalidomide 10 uM = 100%, DMSO = 0%); higher = more growth rescue (IKZF1 fusion degradation)). Conditions: compound concentration: 5 uM; AraC concentration: 0.3 uM; overnight pretreatment + 4 days AraC.
Procedure: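 Growth recovery screen of the molecular-glue-like (Specs) library. HEK293FT cells expressing a dCK*-IKZF1 fusion (primary) or dCK* alone (counter) were pretreated overnight with compound at 5 uM, then given 0.3 uM AraC for 4 days. Hoechst nuclei were counted by imaging. Primary: normalised to pomalidomide (100%) and DMSO (0%), mean of 2 replicates. Counter: normalised to no-AraC (100%) and AraC+DMSO (0%), single replicate.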

Row | SMILES | relative growth recovery [%]
1 | COc1c(C)cccc1C(=O)N1CCCC1c1cccc(Nc2nc(C)cs2)n1 (stereo not drawn) | -2.85
2 | Cc1nonc1CC(=O)N1CCC(c2cccc(Nc3nc(C)c(C)s3)n2)CC1 | 13.2
3 | COc1cc(NS(=O)(=O)c2ccc(NC(=O)COc3cccc(C)c3)cc2)nc(OC)n1 | -18.6
4 | CCOc1ccccc1OCC(=O)Nc1ccc(S(=O)(=O)Nc2ccccn2)cc1 | -1.77
5 | Cc1ccc(/C=C/C(=O)Nc2ccc(S(=O)(=O)Nc3cc(C)nc(C)n3)cc2)cc1 | -1.54
6 | COc1cc(NS(=O)(=O)c2ccc(NC(=O)C(C)(C)C)cc2)nc(OC)n1 | 2.35
7 | O=S(=O)(Nc1ccc(S(=O)(=O)Nc2ncccn2)cc1)c1ccc(Cl)cc1 | -4.2
8 | O=C(CSc1nnc2c(n1)[nH]c1ccccc12)Nc1cc(Cl)cc(Cl)c1 | -18.7
9 | CCCc1cnc(Nc2cccc(C3CCN(C(=O)C4CCCCN4C(=O)COC)CC3)n2)s1 (stereo not drawn) | -4.5
10 | Cc1ccc(CC(=O)N2CCOC(c3cccc(Nc4nccs4)n3)C2)cc1C (stereo not drawn) | 15.9
11 | O=C(O)CCOCCOCCOCCOCCNc1cc2c(cc1F)C(=O)N(C1CCC(=O)NC1=O)C2=O (stereo not drawn) | 1.62
12 | CC(C)(C)C(=O)NC1(C(=O)N2CCC(c3cccc(Nc4ncc(Cl)s4)n3)CC2)CCCCC1 | -18.6
13 | Cc1cc(C)nc(NS(=O)(=O)c2ccc(NC(=O)CSc3nc4ccccc4[nH]3)cc2)n1 | 3.98
14 | CCC(CC)C(=O)Nc1ccc(S(=O)(=O)Nc2nccc(C)n2)cc1 | -0.49
15 | O=C1CCC(N2C(=O)c3ccc(NCCCn4cc(C(=O)O)cn4)cc3C2=O)C(=O)N1 (stereo not drawn) | -3.6
16 | Cc1cnc(C(=O)N2CCC(c3cccc(Nc4nccs4)n3)CC2)cn1 | -0.78
17 | COc1cc(NS(=O)(=O)c2ccc(NC(=S)NC(=O)/C=C/c3ccc(F)cc3)cc2)nc(OC)n1 | -16.2
18 | CC(=O)N1CCCCC1c1csc(Nc2ccccn2)n1 (stereo not drawn) | 1.36
19 | COc1ccc(Cl)cc1C(=O)Nc1ccc(S(=O)(=O)Nc2nccc(C)n2)cc1 | -1.7
20 | Cc1ccc2[nH]c3nc(SCC(=O)Nc4cccc(Cl)c4C)nnc3c2c1 | -3
21 | COC(C)(C)C(=O)N1CCOC(c2cccc(Nc3ncc(C)s3)n2)C1 (stereo not drawn) | -8.72
22 | O=C(CSc1nc2cc(Cl)ccc2[nH]1)Nc1ncccn1 | -1.69
23 | Cc1csc(Nc2cccc(C3CCCN3C(=O)Cc3c[nH]c4ccccc34)n2)n1 (stereo not drawn) | 11.2
24 | CC(C)c1cnc(Nc2cccc(C3CCN(C(=O)C4CCCCC4)CC3)n2)s1 | 2.44

Row | SMILES | relative growth recovery [%]
25 | Cc1cccc(OC(C)(C)C(=O)N2CCOC(c3cccc(Nc4ncc(C)s4)n3)C2)c1 (stereo not drawn) | 0.545
26 | CC(C)(C)CC(=O)NC1(C(=O)N2CCC(c3cccc(Nc4ncc(Cl)s4)n3)CC2)CCCCC1 | -16.4
27 | Cc1cc(C)nc(NS(=O)(=O)c2ccc(Nc3nc(-c4ccccc4)cs3)cc2)n1 | -3.62
28 | CC(=O)Nc1ccc(S(=O)(=O)Nc2nccc(/C=C/c3ccc(Cl)cc3)n2)cc1 | -3.16
29 | Cc1cnc(Nc2cccc(C3CN(C(=O)CN4CCN(C)CC4)CCO3)n2)s1 (stereo not drawn) | 2.71
30 | O=C(Nc1ccc(S(=O)(=O)Nc2ccccn2)cc1)c1ccccc1F | 1.19
31 | Cc1cnc(Nc2cccc(CC3CCN(C(=O)c4cccc(Cl)c4F)CC3)n2)s1 | -14.4
32 | COc1cc(NS(=O)(=O)c2ccc(NC(=O)c3ccccc3C)cc2)nc(OC)n1 | -0.335
33 | Cc1csc(Nc2cccc(C3CCN(C(=O)CN(C)C)CC3)n2)n1 | 15.2
34 | Cc1cccc2c1[nH]c1nc(SCC(=O)Nc3ccc(Cl)cc3)nnc12 | -3.74
35 | CCCc1cnc(Nc2cccc(C3CCN(C(=O)CN)CC3)n2)s1 | -15.8
36 | Cc1cnc(Nc2cccc(C3CCN(CC(=O)N(C)C4CCCCC4)CC3)n2)s1 | -8.8
37 | COc1nccnc1NS(=O)(=O)c1ccc(NC(=S)NC(=O)c2ccc(F)c(F)c2)cc1 | -1.25
38 | Cc1nc(Nc2cccc(C3CCCN3C(=O)c3c(C)oc4c3CCCC4)n2)sc1C (stereo not drawn) | -4.17
39 | O=C(Nc1ccc(S(=O)(=O)Nc2ncccn2)cc1)c1ccc(N2C(=O)c3ccccc3C2=O)cc1 | 5.91
40 | COC1CCCC(C(=O)N2CCOC(c3cccc(Nc4ncc(C)s4)n3)C2)C1 (stereo not drawn) | -5.89
41 | Cc1cnc(Nc2cccc(C3CN(C(=O)CN4CCc5ccccc5C4)CCO3)n2)s1 (stereo not drawn) | -0.525
42 | Cc1cc(C)nc(NS(=O)(=O)c2ccc(NC(=O)C(C)Oc3c(C)cccc3C)cc2)n1 (stereo not drawn) | -2.94
43 | CCOc1cc(C(=O)Nc2ccc(S(=O)(=O)Nc3ncccn3)cc2)cc(OCC)c1OCC | 0.09
44 | COc1ccc(Cl)c2c1[nH]c1nc(SCC(=O)Nc3ccc(F)cc3)nnc12 | -2.51
45 | Cc1cnc(Nc2cccc(C3(C(=O)NCCO)CCN(C(=O)C4CCCCC4)CC3)n2)s1 | -5.96
46 | CCC(CC)C(=O)N1CCOC(c2cccc(Nc3ncc(C)s3)n2)C1 (stereo not drawn) | -16
47 | Cc1cnc(Nc2cccc(C3CN(C(=O)C4CCCC(C)C4)CCO3)n2)s1 (stereo not drawn) | -10.3
48 | Cc1ccc2[nH]c3nc(SCC(=O)Nc4ccc(Cl)cc4)nnc3c2c1 | -3.19

Row | SMILES | relative growth recovery [%]
49 | Cc1cc(C)cc(OCC(=O)Nc2ccc(S(=O)(=O)Nc3nc(C)cc(C)n3)cc2)c1 | -2.81
50 | Cc1cc(NS(=O)(=O)c2ccc(NC(=O)C(C)Oc3ccc(F)cc3)cc2)nc(C)n1 (stereo not drawn) | -0.56
51 | NC1(C(=O)N2CCC(c3cccc(Nc4ncc(CC(F)(F)F)s4)n3)CC2)CC1 | -18.8
52 | COc1ccc(CCC(=O)Nc2ccc(S(=O)(=O)Nc3nccc(C)n3)cc2)cc1 | -1.64
53 | Cc1cccc(N2CC(C(=O)Nc3ccc(S(=O)(=O)Nc4ncccn4)cc3)CC2=O)c1C (stereo not drawn) | -2.91
54 | CCc1ccc(C(=O)Nc2ccc(S(=O)(=O)Nc3nc(C)cc(C)n3)cc2)o1 | 0.865
55 | O=C(O)CCOCCOCCOCCOCCNc1cccc2c1C(=O)N(C1CCC(=O)NC1=O)C2=O (stereo not drawn) | 0.6
56 | CC(C)(C)C(=O)N1CCOC(c2cccc(Nc3ncc(Cc4ccccc4F)s3)n2)C1 (stereo not drawn) | 0.925
57 | Cc1cc(C)nc(NS(=O)(=O)c2ccc(NC(=O)c3ccccc3I)cc2)n1 | -0.26
58 | O=C(C1COCCN1)N1CCC(c2cccc(Nc3ncc(-c4ccccc4)s3)n2)CC1 (stereo not drawn) | -3.4
59 | O=C(C1CCCCC1)N1CCOC(c2cccc(Nc3ncc(Cc4ccccc4)s3)n2)C1 (stereo not drawn) | 2.33
60 | COc1cc(NS(=O)(=O)c2ccc(Nc3nc(-c4ccc(F)cc4F)cs3)cc2)nc(OC)n1 | 0.525
61 | COc1cc(NS(=O)(=O)c2ccc(Nc3nc(-c4c(C)nc5cc(C)ccn45)cs3)cc2)nc(OC)n1 | -7.5
62 | CS(=O)(=O)Nc1ccc(S(=O)(=O)Nc2ncccn2)cc1 | -4.6
63 | Cc1cc(C)nc(NS(=O)(=O)c2ccc(NC(=O)CCCN3C(=O)c4ccccc4C3=O)cc2)n1 | 0.95
64 | Cc1cc(C)c2[nH]c3nc(SCC(=O)Nc4ccc(C)c(Cl)c4)nnc3c2c1 | -10.4
65 | Cc1ccccc1N1C(=O)c2ccc(Oc3cccc(N)c3)cc2C1=O | -5
66 | Cc1ccc(OCC(=O)Nc2ccc(S(=O)(=O)Nc3nc(C)cc(C)n3)cc2)cc1 | -1.25
67 | Cc1cc(C)nc(NS(=O)(=O)c2ccc(-n3cccc3)cc2)n1 | -1.34
68 | Cc1cnc(Nc2cccc(C3CN(C(=O)Cn4c(C(C)C)nc5ccccc54)CCO3)n2)s1 (stereo not drawn) | -5.78
69 | CCCCCOC(=O)c1ccc(N2C(=O)c3ccc(Oc4ccc(N)cc4)cc3C2=O)cc1 | 1.57
70 | COc1cc(NS(=O)(=O)c2ccc(NC(=O)c3ccccc3C(=O)O)cc2)nc(OC)n1 | -4.23
71 | CC(=O)N1CCC(c2csc(Nc3ccc(F)cn3)n2)CC1 | -1.78
72 | Cc1nn(C)c(C)c1/C=C/C(=O)N1CCC(c2cc3ccccc3c(Nc3nccs3)n2)CC1 | 51.1

Row | SMILES | relative growth recovery [%]
73 | Cc1cnc(Nc2cccc(C3CCN(C(=O)c4cccc5cccnc45)CC3)n2)s1 | -2
74 | CC(=O)Oc1cccc(N2C(=O)c3ccc(Oc4ccc(N)cc4)cc3C2=O)c1 | -2.92
75 | CNC(=O)[C@@H]1CCCC[C@@H]1C(=O)N1CCC(c2cccc(Nc3ncc(C)s3)n2)CC1 | -16.2
76 | Cc1cnc(NC(=O)CN2CCC(c3cccc(Nc4nc(C)c(C)s4)n3)CC2)s1 | 30.3
77 | COC(=O)CCC(=O)Nc1ccc(S(=O)(=O)Nc2nc(C)cc(C)n2)cc1 | 2.03
78 | CC(=O)Nc1ccc(Oc2ccc3c(c2)C(=O)N(c2ccccc2C)C3=O)cc1 | 0.17
79 | Cc1ccnc(NS(=O)(=O)c2ccc([N+](=O)[O-])cc2)c1 | -5.97
80 | Cc1cc(C)c(C(=O)Nc2ccc(S(=O)(=O)Nc3ccccn3)cc2)c(C)c1 | -2.16
81 | Cc1ccnc(NS(=O)(=O)c2ccc(N3C(=O)c4ccc(C(=O)O)cc4C3=O)cc2)n1 | 1.42
82 | Cc1ccnc(NS(=O)(=O)c2ccc(NC(=O)CC34CC5CC(CC(C5)C3)C4)cc2)n1 | 4.75
83 | CN[C@@H]1CCC[C@@H](n2cnc3c(N)nc(N)nc32)[C@@H]1O | -1.49
84 | Nc1cccc(Oc2ccc3c(c2)C(=O)N(CCO)C3=O)c1 | 1.1
85 | Cc1ccnc(NS(=O)(=O)c2ccc(N3C(=O)C4C5C=CC(C5)C4C3=O)cc2)n1 (stereo not drawn) | -1.3
86 | O=C1c2ccc(Oc3ccc(NC(=O)C(F)(F)F)cc3)cc2C(=O)N1c1ccc(O)cc1 | -4.51
87 | Cc1cc(NS(=O)(=O)c2ccc(NC(=O)COc3ccc(C)c(C)c3)cc2)nc(C)n1 | -14.2
88 | Cc1cc(C)nc(NS(=O)(=O)c2ccc(NC(=O)C3CC(=O)N(c4ccccc4)C3)cc2)n1 (stereo not drawn) | -4.03
89 | Cc1cc(C)c(C(=O)Nc2ccc(S(=O)(=O)Nc3ncccn3)cc2)c(C)c1 | -2.61
90 | COc1ccc(CN(C(=O)CSc2nnc3c(n2)[nH]c2ccc(OC)cc23)c2ccc(F)cc2)cc1 | 13.3
91 | Cc1cnc(Nc2cccc(C3CN(C(=O)C(C)(C)C)CCO3)n2)s1 (stereo not drawn) | -4.22
92 | Cc1cnc(Nc2cccc(C3(CO)CCN(C(=O)C4CCCCC4)CC3)n2)s1 | -11.4
93 | Cc1cccc(C(=O)Nc2ccc(S(=O)(=O)Nc3nc(C)cc(C)n3)cc2)c1 | 4.85
